Several values for one entry are separate records, joined by “and”; a condition that tells them apart may be missing. Equal entries are not always repeated. Where two headings read alike, the source gives them in different places.
What was measured:
[1] = tested on: L1 wild-type C. elegans (N2); settings: for LC50: caenorhabditis elegans
[2] = tested on: L1 wild-type C. elegans (N2); assay: microbe, parasite or virus in culture; settings: Caenorhabditis elegans; for viability at 125 µM: read-out: C. elegans Wild type development/viability, Dose 125 µM; for viability at 1000 µM: read-out: C. elegans Wild type development/viability, Dose 1000 µM
[3] = read-out: C. elegans (Wild type) Development & Viability Assay LC50
[4] = read-out: C. elegans Wild type development/viability, Dose 1 µM
[5] = read-out: C. elegans Wild type development/viability, Dose 2 µM
[6] = read-out: C. elegans Wild type development/viability, Dose 3.9 µM
[7] = read-out: C. elegans Wild type development/viability, Dose 15.6 µM
[8] = read-out: C. elegans Wild type development/viability, Dose 31.3 µM
[9] = read-out: C. elegans Wild type development/viability, Dose 62.5 µM
[10] = read-out: C. elegans Wild type development/viability, Dose 250 µM
[11] = read-out: C. elegans Wild type development/viability, Dose 500 µM
[12] = read-out: C. elegans Wt viability log10 LC50 (converted)
[13] = 144 h, read-out: C. elegans (Wild type) Development & Viability Assay LC50
[14] = dose 0.2 µM, individual replicate (Rep)
[15] = dose 6.3 µM, individual replicate (Rep)
[16] = dose 25 µM, individual replicate (Rep)
[17] = dose 100 µM, individual replicate (Rep)
[18] = read-out: C. elegans Wt viability LC50

O=C1OC(c2ccccc2)=NC1=CC=Cc1ccccc1 (mixture of isomers) [NPD8298]
LC50 [1]: > 100 µM

CCCCCCCCCCCCCCCc1cccc(O)c1C(=O)O [Anacardic acid]
LC50 [1]: > 100 µM

CCc1cc(OCCn2cnc3ccccc32)ccc1Cl [Compound 7925288]
LC50 [2, 3]: 45.6 µM | viability at 1 µM [2, 4]: 100% | viability at 2 µM [2, 5]: 97.7% | viability at 3.9 µM [2, 6]: 100% | viability at 15.6 µM [2, 7]: 99.4% | viability at 31.3 µM [2, 8]: 95.9% | viability at 62.5 µM [2, 9]: 6.7% | viability at 125 µM [2]: 4.2% | viability at 250 µM [2, 10]: 1.7% | viability at 500 µM [2, 11]: 2.5% | viability at 1000 µM [2]: 0.7% | LC50 [2, 12]: 45.6 µM

Cc1ccc(SCCCCn2cnc3ccccc32)cc1 [Compound 7925333]
LC50 [2, 3]: 227 µM | viability at 1 µM [2, 4]: 100% | viability at 2 µM [2, 5]: 97.8% | viability at 3.9 µM [2, 6]: 100% | viability at 15.6 µM [2, 7]: 100% | viability at 31.3 µM [2, 8]: 96.9% | viability at 62.5 µM [2, 9]: 100% | viability at 125 µM [2]: 100% | viability at 250 µM [2, 10]: 22.9% | viability at 500 µM [2, 11]: 2.7% | viability at 1000 µM [2]: 2% | LC50 [2, 12]: 226 µM

Clc1ccc(SCCCCn2cnc3ccccc32)cc1 [Compound 7925515]
LC50 [2, 3]: 51.3 µM | viability at 1 µM [2, 4]: 99.5% | viability at 2 µM [2, 5]: 98.2% | viability at 3.9 µM [2, 6]: 98.8% | viability at 15.6 µM [2, 7]: 99.8% | viability at 31.3 µM [2, 8]: 80.3% | viability at 62.5 µM [2, 9]: 37.2% | viability at 125 µM [2]: 5.6% | viability at 250 µM [2, 10]: 2.3% | viability at 500 µM [2, 11]: 3% | viability at 1000 µM [2]: 1.4% | LC50 [2, 12]: 51.3 µM

Clc1ccccc1OCCCCn1cnc2ccccc21 [Compound 7925804]
LC50 [2, 3]: 85.9 µM | viability at 1 µM [2, 4]: 99.2% | viability at 2 µM [2, 5]: 97.8% | viability at 3.9 µM [2, 6]: 97.7% | viability at 15.6 µM [2, 7]: 97.5% | viability at 31.3 µM [2, 8]: 97.2% | viability at 62.5 µM [2, 9]: 90.8% | viability at 125 µM [2]: 6.2% | viability at 250 µM [2, 10]: 3.9% | viability at 500 µM [2, 11]: 1.6% | viability at 1000 µM [2]: 1% | LC50 [2, 12]: 85.9 µM

Cc1ccc(SCCCn2cnc3ccccc32)cc1 [Compound 7926035]
LC50 [2, 3]: 83.4 µM | viability at 1 µM [2, 4]: 96.2% | viability at 2 µM [2, 5]: 96.1% | viability at 3.9 µM [2, 6]: 93.8% | viability at 15.6 µM [2, 7]: 97.2% | viability at 31.3 µM [2, 8]: 93.1% | viability at 62.5 µM [2, 9]: 84.3% | viability at 125 µM [2]: 10.2% | viability at 250 µM [2, 10]: 3.5% | viability at 500 µM [2, 11]: 4.5% | viability at 1000 µM [2]: 4.9% | LC50 [2, 12]: 83.4 µM

CC(C)Oc1cccc(OCCn2cnc3ccccc32)c1 [Compound 7926496]
LC50 [2, 3]: 375 µM | viability at 31.3 µM ([2]; read-out: C. elegans Wild type development/viability): 91.5% | viability at 1 µM [2, 4]: 95.1% | viability at 2 µM [2, 5]: 96.1% | viability at 3.9 µM [2, 6]: 100% | viability at 15.6 µM [2, 7]: 100% | viability at 62.5 µM [2, 9]: 100% | viability at 125 µM [2]: 98.7% | viability at 250 µM [2, 10]: 69.1% | viability at 500 µM [2, 11]: 36.5% | viability at 1000 µM [2]: 4.2% | LC50 [2, 12]: 375 µM

Cn1c(Cc2ccc(Cl)cc2)nc2ccccc21 [Compound 9005666]
LC50 [2, 3]: 193 µM | LC50 [2, 12]: 193 µM

O=C(/C=C/c1ccccc1)/C=C/c1ccccc1 [FSL0005]
LC50 [1]: 4.18 µM

O=C(CCCN1C(=O)c2cccc3cccc(c23)C1=O)N1CCN(Cc2ccc3c(c2)OCO3)CC1 [HTD0465]
LC50 [1]: 35.3 µM

COc1ccc(-c2cc(=Nc3ccc(C)cc3)c3ccccc3o2)cc1OC [NPD1450]
LC50 [1]: > 100 µM

COc1cc2c(cc1OC)C(c1ccc(-c3ccc(Cl)c(Cl)c3)o1)=NCC2 [NPD3577]
LC50 [2, 13]: > 100 µM

CC1(C#CCN2CCCCCC2)CCC2C(O1)c1ccccc1OC2(C)C (stereo not shown) [NPD5219]
LC50 [1]: 38.7 µM

Cc1cc(O)c(C(=O)/C=C/c2ccc(C(C)C)cc2)c(=O)o1 [NPD6240]
LC50 [1]: > 100 µM

COc1cc2c(cc1OC)C(/C=C/c1ccc(N(C)C)cc1)=NCC2 [NPD6303]
LC50 [2, 13]: > 100 µM

COc1ccc(-c2cc(=Nc3ccccc3N)c3ccccc3o2)cc1 [NPD6380]
LC50 [1]: > 100 µM | C. elegans L1 development and viability (6-day growth) [1, 14]: 0.984 | C. elegans L1 development and viability (6-day growth) ([1]; dose 3.1 µM, individual replicate (Rep)): 0.953 | C. elegans L1 development and viability (6-day growth) [1, 15]: 0.996 | C. elegans L1 development and viability (6-day growth) [1, 16]: 0.996 | C. elegans L1 development and viability (6-day growth) [1, 17]: 0.837 and 0.905

COc1ccc(N=c2cc(-c3ccc(OC)cc3)oc3ccc(O)cc23)cc1 [NPD8034]
LC50 [1]: > 100 µM

Cc1cc(O)c(C(=O)/C=C/c2ccccc2)c(=O)o1 [NPD8366]
LC50 [1]: > 100 µM

COc1cc2c(cc1OC)C(C(C)c1ccc(CC(C)C)cc1)=NCC2 (stereo not shown) [NPD10504]
LC50 [2, 13]: > 100 µM

O=C(Nc1ccc([N+](=O)[O-])cc1Cl)c1cc(Cl)ccc1O [Niclosamide]
LC50 [2, 13]: > 1000 µM | viability at 1 µM ([2]; 144 h, read-out: C. elegans L1 development and viability (6-day growth), dose 1.000 µM, Mean of replicates): 95.1% | viability at 1 µM ([2]; 144 h, read-out: C. elegans L1 development and viability (6-day growth), dose 1.000 µM, individual replicate (Rep)): 100% | viability at 2 µM ([2]; 144 h, read-out: C. elegans L1 development and viability (6-day growth), dose 2.000 µM, Mean of replicates): 95.1% | viability at 3.9 µM ([2]; 144 h, read-out: C. elegans L1 development and viability (6-day growth), dose 3.900 µM, Mean of replicates): 92.6% | viability at 15.6 µM ([2]; 144 h, read-out: C. elegans L1 development and viability (6-day growth), dose 15.600 µM, Mean of replicates): 96.5% | viability at 15.6 µM ([2]; 144 h, read-out: C. elegans L1 development and viability (6-day growth), dose 15.600 µM, individual replicate (Rep)): 100% | viability at 31.3 µM ([2]; 144 h, read-out: C. elegans L1 development and viability (6-day growth), dose 31.300 µM, Mean of replicates): 96.7% | viability at 31.3 µM ([2]; 144 h, read-out: C. elegans L1 development and viability (6-day growth), dose 31.300 µM, individual replicate (Rep)): 100% | viability at 62.5 µM ([2]; 144 h, read-out: C. elegans L1 development and viability (6-day growth), dose 62.500 µM, Mean of replicates): 98.1% | viability at 62.5 µM ([2]; 144 h, read-out: C. elegans L1 development and viability (6-day growth), dose 62.500 µM, individual replicate (Rep)): 100% | viability at 250 µM ([2]; 144 h, read-out: C. elegans L1 development and viability (6-day growth), dose 250.000 µM, Mean of replicates): 92.3% | viability at 500 µM ([2]; 144 h, read-out: C. elegans L1 development and viability (6-day growth), dose 500.000 µM, Mean of replicates): 93.6% | viability at 500 µM ([2]; 144 h, read-out: C. elegans L1 development and viability (6-day growth), dose 500.000 µM, individual replicate (Rep)): 100%

CCc1ccc(-c2cc(C(=O)Nc3nccs3)c3ccccc3n2)cc1 [STK418118]
LC50 [1]: 43.3 µM

CCc1ccc(CNc2nc3ccccc3n2C)cc1 [STK498539]
LC50 [2, 3]: 222 µM | LC50 [2, 12]: 222 µM

c1ccc(-c2noc(CCCCc3nc4ccccc4[nH]3)n2)cc1 [STK633241]
LC50 [2, 3]: > 1000 µM | LC50 [2, 18]: > 500 µM | LC50 [2, 12]: > 500 µM

C(=C\c1nc2ccccc2[nH]1)/c1ccccc1 [STK871091]
LC50 [2, 3]: 171 µM | LC50 [2, 12]: 171 µM

CCc1ccc(OC(C)c2nc3ccccc3[nH]2)cc1 (stereo not shown) [STK914290]
LC50 [2, 3]: 256 µM | LC50 [2, 12]: 256 µM

CCn1c(C(C)c2ccc(CC(C)C)cc2)nc2ccccc21 (stereo not shown) [STK951902]
LC50 [2, 3]: 594 µM | LC50 [2, 12]: 594 µM

CC(C)Cc1ccc(C(C)c2nc3ccccc3n2C(C)C)cc1 (stereo not shown) [STK951903]
LC50 [2, 3]: > 1000 µM | LC50 [2, 18]: > 500 µM | LC50 [2, 12]: > 500 µM

C=CCn1c(C(C)c2ccc(CC(C)C)cc2)nc2ccccc21 (stereo not shown) [STL020755]
LC50 [2, 3]: 325 µM | LC50 [2, 12]: 325 µM

c1ccc(CCCCCCCCCCc2nc3ccccc3[nH]2)cc1 [STL442376]
LC50 [2, 3]: 584 µM | LC50 [2, 12]: 583 µM

Cc1ccc2nc(C(C)c3ccc(CC(C)C)cc3)[nH]c2c1 (stereo not shown) [STL482096]
LC50 [2, 3]: > 1000 µM | LC50 [2, 18]: > 500 µM | LC50 [2, 12]: > 500 µM

c1ccc2[nH]c(-c3cscn3)nc2c1 [Thiabendazole]
LC50 [2, 18]: 125 µM

O=C(NCCc1ccc(Cl)cc1)c1ccccc1C(F)(F)F [Wact-11]
LC50 [1]: 0.42 µM | C. elegans L1 development and viability (6-day growth) [1, 14]: 0.955 and 0.982 | C. elegans L1 development and viability (6-day growth) ([1]; dose 0.4 µM, Mean of replicates): 0.818 | C. elegans L1 development and viability (6-day growth) ([1]; dose 0.8 µM, Mean of replicates): 0.557 | C. elegans L1 development and viability (6-day growth) ([1]; dose 3.1 µM, Mean of replicates): 0.003 | C. elegans L1 development and viability (6-day growth) ([1]; dose 6.3 µM, Mean of replicates): 0.000 | C. elegans L1 development and viability (6-day growth) [1, 15]: 0.000 | C. elegans L1 development and viability (6-day growth) ([1]; dose 12.5 µM, Mean of replicates): 0.000 | C. elegans L1 development and viability (6-day growth) ([1]; dose 12.5 µM, individual replicate (Rep)): 0.000 | C. elegans L1 development and viability (6-day growth) ([1]; dose 25 µM, Mean of replicates): 0.000 | C. elegans L1 development and viability (6-day growth) [1, 16]: 0.000 | C. elegans L1 development and viability (6-day growth) ([1]; dose 50 µM, Mean of replicates): 0.0005 | C. elegans L1 development and viability (6-day growth) ([1]; dose 100 µM, Mean of replicates): 0.000 | C. elegans L1 development and viability (6-day growth) [1, 17]: 0.000

COC(=O)Nc1nc2ccc(Sc3ccccc3)cc2[nH]1 [fenbendazole, reference compound]
LC50 [2, 18]: 37.5 µM

COC(=O)Nc1nc2ccc(C(=O)c3ccccc3)cc2[nH]1 [mebendazole, reference compound]
LC50 [2, 18]: 28.2 µM
